Measured values: a collection of fitness landscapes (doi:10.1126/science.1257360)
Some of the results follow.

B1: PhoQ; a variant is named by its letters at X, in order, P23837 (parent)
chain: MKKLLRLFFPLSLRVRFLLATAAVVLVLSLAYGMVALIGYSVSFDKTTFRLLRGESNLFYTLAKWENNKLHVELPENIDKQSPTMTLIYDENGQLLWAQRDVPWLMKMIQPDWLKSNGFHEIEADVNDTSLLLSGDHSIQQQLQEVREDDDDAEMTHSVAVNVYPATSRMPKLTIVVVDTIPVELKSSYMVWSWFIYVLSANLLLVIPLLWVAAWWSLRPIEALAKEVRELEEHNRELLNPATTRELTSLVRNLNRLLKSERERYDKYRTTLTDLTHSLKTPLXXLQXXLRSLRSEKMSVSDAEPVMLEQISRISQQIGYYLHRASMRGGTLLSRELHPVAPLLDNLTSALNKVYQRKGVNISLDISPEISFVGEQNDFVEVMGNVLDNACKYCLEFVEISARQTDEHLYIVVEDDGPGIPLSKREVIFDRGQRVDTLRPGQGVGLAVAREITEQYEGKIVAGESMLGGARMEVIFGRQHSAPKDE

Variants of: B1
Test: enrichment ratio after two sorts for PhoP signalling (ratio (wild type AVST 3.29)); higher = more functional
Conditions: with PhoP (E. coli)

Variant | enrichment ratio
WGYC | ≤ 0.25
RITF | ≤ 0.25
WFFG | ≤ 0.25
PACH | ≤ 0.25
SRCR | ≤ 0.25
QQYV | ≤ 0.25
AMCF | 12.3
FGWD | ≤ 0.25
QQEP | ≤ 0.25
IYTF | ≤ 0.25
DQEC | ≤ 0.25
DGRQ | ≤ 0.25
ERCY | ≤ 0.25
THRV | ≤ 0.25
DELF | ≤ 0.25
WDAH | ≤ 0.25
QEAW | ≤ 0.25
VHYH | ≤ 0.25
HSLN | ≤ 0.25
LAFA | ≤ 0.25
STLY | 13.1
TINC | 5.07
ISAR | ≤ 0.25
MADK | ≤ 0.25

Variant | enrichment ratio
PDMG | ≤ 0.25
DEAI | ≤ 0.25
FNEN | ≤ 0.25
GMGE | ≤ 0.25
FPHT | ≤ 0.25
NFCD | ≤ 0.25
DTPQ | ≤ 0.25
MNST | ≤ 0.25
PCAG | ≤ 0.25
YYWV | ≤ 0.25
MEGD | ≤ 0.25
AAYY | ≤ 0.25
CMIL | ≤ 0.25
FRNI | ≤ 0.25
MPFC | ≤ 0.25
MHEC | ≤ 0.25
RPRI | ≤ 0.25
YWRW | ≤ 0.25
YYCA | ≤ 0.25
IMIF | ≤ 0.25
YPNS | ≤ 0.25
APHQ | ≤ 0.25
ELCN | ≤ 0.25
DCHK | ≤ 0.25

Variant | enrichment ratio
MLAP | ≤ 0.25
MNTA | ≤ 0.25
NDWT | ≤ 0.25
QPPY | ≤ 0.25
LFTS | ≤ 0.25
HWCL | ≤ 0.25
SWFD | ≤ 0.25
IDPR | ≤ 0.25
AVNP | ≤ 0.25
PATC | ≤ 0.25
NVLI | ≤ 0.25
MVRP | ≤ 0.25
FRST | ≤ 0.25
FCCF | ≤ 0.25
QPFS | ≤ 0.25
WQRV | ≤ 0.25
ETRS | ≤ 0.25
DGDP | ≤ 0.25
ISFF | ≤ 0.25
TQRD | ≤ 0.25
KATQ | ≤ 0.25
SEDK | ≤ 0.25
GMYP | ≤ 0.25
FASD | ≤ 0.25

Variant | enrichment ratio
KLCF | ≤ 0.25
DLSK | ≤ 0.25
NNHQ | ≤ 0.25
HHQK | ≤ 0.25
LPVC | ≤ 0.25
MWQQ | ≤ 0.25
PVIP | ≤ 0.25
WCKR | ≤ 0.25
VMKQ | ≤ 0.25
QLIS | ≤ 0.25
GTWF | ≤ 0.25
TPRA | ≤ 0.25
SRNR | ≤ 0.25
FNFF | 1
YYMQ | ≤ 0.25
HKYI | ≤ 0.25
VDWM | ≤ 0.25
TWTM | ≤ 0.25
DSRA | ≤ 0.25
SIDH | ≤ 0.25
DMAP | ≤ 0.25
APNL | ≤ 0.25
PCHT | ≤ 0.25
AQRF | ≤ 0.25

Variant | enrichment ratio
QTTY | ≤ 0.25
VLVR | ≤ 0.25
DLNR | ≤ 0.25
IRRK | ≤ 0.25
YANG | ≤ 0.25
KNMQ | ≤ 0.25
TMTL | 20.9
GSWL | ≤ 0.25
WFMF | ≤ 0.25
GCLG | 14.9
RYKC | ≤ 0.25
TSGR | ≤ 0.25
PPAF | ≤ 0.25
FDFP | ≤ 0.25
KHMR | ≤ 0.25
RFER | ≤ 0.25
HDGD | ≤ 0.25
RTPD | ≤ 0.25
NVTS | ≤ 0.25
GRMC | ≤ 0.25
FFNY | ≤ 0.25
HGPW | 2.35
SEIF | 8.09
YEWQ | ≤ 0.25

Variant | enrichment ratio
KGSI | ≤ 0.25
HSGY | ≤ 0.25
CLLC | ≤ 0.25
DKTG | ≤ 0.25
LRFW | ≤ 0.25
MESA | 1.15
TLKS | ≤ 0.25
DYDN | ≤ 0.25
PSFA | ≤ 0.25
GRDE | ≤ 0.25
VWVC | ≤ 0.25
HGLI | 13.3
THLL | 14
INTS | ≤ 0.25
PKDW | ≤ 0.25
EKLI | ≤ 0.25
ISAP | ≤ 0.25
RACV | ≤ 0.25
IHRC | ≤ 0.25
VYNG | ≤ 0.25
VQIP | ≤ 0.25
AWEP | ≤ 0.25
FCCA | ≤ 0.25
ITKQ | ≤ 0.25

Variant | enrichment ratio
YFMF | ≤ 0.25
APVQ | ≤ 0.25
YAEV | ≤ 0.25
ILNQ | ≤ 0.25
SLTP | ≤ 0.25
HSTR | ≤ 0.25
WCDR | ≤ 0.25
DWKD | ≤ 0.25
YAIQ | ≤ 0.25
WEYS | ≤ 0.25
MMGW | ≤ 0.25
YRLV | ≤ 0.25
VIFV | ≤ 0.25
LVDI | ≤ 0.25
HQWT | ≤ 0.25
FCVS | ≤ 0.25
SEEW | ≤ 0.25
WQLQ | ≤ 0.25
EVCD | ≤ 0.25
TRWN | ≤ 0.25
WKLQ | ≤ 0.25
DKVK | ≤ 0.25
DAAY | ≤ 0.25
WFYK | ≤ 0.25

Variant | enrichment ratio
RDAL | ≤ 0.25
QFCY | ≤ 0.25
HGKG | ≤ 0.25
ILWQ | ≤ 0.25
MLSI | 3.87
SVRV | ≤ 0.25
LHAF | ≤ 0.25
AFGT | ≤ 0.25
DDNT | ≤ 0.25
DNFK | ≤ 0.25
AHTT | ≤ 0.25
AEWA | ≤ 0.25
DEGN | ≤ 0.25
NERE | ≤ 0.25
PQAC | ≤ 0.25
KTFV | ≤ 0.25
VTML | 15.3
GESY | 12.8
SWKD | ≤ 0.25
MFCV | ≤ 0.25
DYVE | ≤ 0.25
YHEQ | ≤ 0.25
AGQE | ≤ 0.25
KQDQ | ≤ 0.25

Variant | enrichment ratio
TAGW | ≤ 0.25
SCQM | 30.8
AEGS | 9.26
DDWV | ≤ 0.25
WPVP | ≤ 0.25
VGKD | ≤ 0.25
YRHH | ≤ 0.25
QAKH | ≤ 0.25
IPMG | ≤ 0.25
LWRW | ≤ 0.25
SVKV | ≤ 0.25
SFDR | ≤ 0.25
TQGV | 7.37
GCSR | ≤ 0.25
EEHC | ≤ 0.25
YFCF | ≤ 0.25
YMHS | ≤ 0.25
HWRL | ≤ 0.25
DYTC | ≤ 0.25
QMDK | ≤ 0.25
TFKT | ≤ 0.25
YEAL | ≤ 0.25
HQLL | ≤ 0.25
SFFW | ≤ 0.25

Variant | enrichment ratio
EFGK | ≤ 0.25
SCNA | ≤ 0.25
FFQL | ≤ 0.25
DRFK | ≤ 0.25
GTLR | ≤ 0.25
NWLW | ≤ 0.25
RKNN | ≤ 0.25
KPPS | ≤ 0.25
TLLC | 1.31
SDWP | ≤ 0.25
VLCV | ≤ 0.25
MRGQ | ≤ 0.25
TIWQ | ≤ 0.25
FPFE | ≤ 0.25
HAYL | ≤ 0.25
FIIE | ≤ 0.25
VSIA | ≤ 0.25
GTAL | 5.81
SKEY | ≤ 0.25
TVCH | ≤ 0.25
DWPM | ≤ 0.25
QNAK | ≤ 0.25
IVMY | ≤ 0.25
DTDC | ≤ 0.25

Variant | enrichment ratio
WQPW | ≤ 0.25
HHEK | ≤ 0.25
MKHE | ≤ 0.25
RVMD | ≤ 0.25
CMSI | 0.38
YKQA | ≤ 0.25
VYES | ≤ 0.25
DYYM | ≤ 0.25
PELV | ≤ 0.25
KLDA | ≤ 0.25
LCLI | ≤ 0.25
KGPF | ≤ 0.25
NLKY | ≤ 0.25
NGYV | ≤ 0.25
RNET | ≤ 0.25
RFCE | ≤ 0.25
KRSA | ≤ 0.25
VQNR | ≤ 0.25
MEFF | 2.84
VNHR | ≤ 0.25
IVHR | ≤ 0.25
EDGG | ≤ 0.25
VWDY | ≤ 0.25
WISN | ≤ 0.25

Variant | enrichment ratio
MEPE | ≤ 0.25
QCIL | ≤ 0.25
DGHH | ≤ 0.25
VMGQ | ≤ 0.25
IPWQ | ≤ 0.25
HHWE | ≤ 0.25
DSNV | ≤ 0.25
LGGN | ≤ 0.25
WRKF | ≤ 0.25
PQVK | ≤ 0.25
WSHT | ≤ 0.25
EFYH | ≤ 0.25
TVKL | ≤ 0.25
GGTA | ≤ 0.25
TEWS | 28.5
RFPN | ≤ 0.25
CLHH | ≤ 0.25
KIRG | ≤ 0.25
FMGW | ≤ 0.25
QYVA | ≤ 0.25
PREG | ≤ 0.25
TMLR | 0.765
DFYM | ≤ 0.25
NTIG | ≤ 0.25

Variant | enrichment ratio
FRVI | ≤ 0.25
WFNS | ≤ 0.25
WYPH | ≤ 0.25
QAML | 1.05
FETN | ≤ 0.25
FGTY | ≤ 0.25
LHEI | ≤ 0.25
EILA | ≤ 0.25
NIVP | ≤ 0.25
MPGV | ≤ 0.25
IGWA | ≤ 0.25
RTLD | ≤ 0.25
SYKR | ≤ 0.25
KNDL | ≤ 0.25
HETH | ≤ 0.25
GTPT | ≤ 0.25
ERYR | ≤ 0.25
QMMI | ≤ 0.25
